# Source: PubChem BioAssay AID1345083 (National Center for Advancing Translational Sciences (NCATS), 2018)
# Hit rate of the full screen: of about 94,000 compounds, about 6,200 (6.6%) were called active. Inconclusive means that the source gave no clear call. Such entries were picked first, then a sample of the others. The call rests on the fitted dose curve; in most records, active means well fitted inhibition curve with a large enough effect; inconclusive means small, poorly fitted or top-dose-only effect; inactive means flat fitted curve, though single readings scatter. Potencies of inconclusive entries are doubtful fits and often do not repeat.
# Experiment: Cytotoxic Profiling in HEK 293 Cell Line of Diverse Libraries Using Quantitative High-Throughput Screening; further: nearly all actives have a fitted effect of over 60% in size
# Conditions: HEK 293 viability, ATP luminescence (CellTiter-Glo), 48-72 h; activity change, negative = cytotoxicity: at 115 µM (top of the series) unless noted; series mostly up to 115 µM
# Procedure, shortened: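 Luminescence from cellular ATP, measured with CellTiter-Glo, indicates HEK 293 viability. Cells plated at 250 cells/well are treated with compound for 48 or 72 hr at 37 degree Celsius before reagent addition.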
# On the % scale 0 is the no-effect control and ±100 the full control effect; potency means the concentration at half of the fitted maximal effect; tags describe the fitted curve by direction and shape.
Structure (SMILES),"activity change, negative = cytotoxicity",Potency,outcome
O=C(C1CC1)N1CC[C@H](c2nc3ccccc3o2)C1,inactive: -20.3% [at 230 µM],,
O=[S+]([O-])(NC1CCCN(Cc2ccc(-c3cncnc3)cc2)C1)c1cccs1 (stereo not given),,"inconclusive: 50.1 µM [inhibitor, partial curve, poor fit]",
O=c1c2c3c(nn2ccn1Cc1ccc(F)cc1F)CCCC3,,"inconclusive: 50.1 µM [inhibitor, partial curve, poor fit]",
COc1ccc(F)cc1-c1cccc(C(=O)NCC(=O)N2CCN(C(C)=O)CC2)c1,,"inconclusive: 79.4 µM [inhibitor, single point]",
CC(=O)N1CCCC(C(=O)N2CCC(c3nc4ncccc4[nH]3)C2)C1 (stereo not given),inactive: 2.2%,,
O=C(NCCc1ccc(Cl)cc1)C1CN(C2CCCC2)C(=O)N1 (stereo not given),,"inconclusive: 100 µM [inhibitor, partial curve, poor fit]",
C1=C(c2cc(-c3cccc4cn[nH]c34)cn3cncc23)CCOC1,,"inconclusive: 70.8 µM [inhibitor, partial curve, poor fit]",
C[C@H]1[C@@H]2[C@@H](O)C([C@H](C)C(=O)NC3CCCC3)CC[C@@]2(C)CC[C@@H]1NC(=O)c1ccncc1 (stereo not given in full),inactive: 1.59%,,
CC(C)(C)c1csc(NC(=O)Cn2nc3c(cc2=O)CCCC3)n1,,"inconclusive: 50.1 µM [inhibitor, partial curve, poor fit]",
CC(C)c1nc2c(c(-c3ccc(O)cc3)n1)CN(C(=O)Nc1ccccc1)CC2,,"inconclusive: 89.1 µM [inhibitor, single point]",
C=CCn1cc(CN(Cc2ccco2)Cc2cccs2)c(C)n1,,"inconclusive: 63.1 µM [inhibitor, partial curve, poor fit]",
Cc1ccc(C2Cn3cnc(C(=O)N4CCC(C(=O)NCc5ccccc5C)CC4)c3CO2)cc1 (stereo not given),inactive: -1.86%,,
Cc1ccc(CN2C[C@H]3CN(C(=O)c4ccc5c(c4)OCO5)CCN3C2=O)cc1,,"inconclusive: 79.4 µM [inhibitor, partial curve]",
Cn1nccc1-c1cccc(CCOc2cnc3c(ccn3CC(=O)O)c2)c1,inactive: -8.88% [at 172 µM],,
O=C(CCc1ccccc1)N1CC(Oc2ccc(-c3nc(-c4ccccc4)no3)cc2)C1,,"inconclusive: 20 µM [inhibitor, full curve]",
CS(=O)(=O)N1CCC(C2CCN(C(=O)c3ccc4[nH]ccc4c3)C2)CC1 (stereo not given),,,inactive
COc1ccc(CN2CC3(C2)NC(=O)c2ccccc2O3)cc1,,"inconclusive: 112 µM [inhibitor, partial curve, poor fit]",
Cc1cnn(CCC(=O)N2CCC3(CC2)CN(c2ccncn2)CC3CO)c1 (stereo not given),,"inconclusive: 89.1 µM [inhibitor, single point]",
O=C1CCN(C(=O)COc2ccc(F)cc2)CCCC(c2nc(-c3ccccc3)no2)CCN1 (stereo not given),,"inconclusive: 56.2 µM [inhibitor, partial curve, poor fit]",
O=[S+]([O-])(Nc1cccnc1)c1ccc2c(c1)OCCN(Cc1cncnc1)C2,inactive: -9.86% [at 172 µM],,
CCN1c2cc(C(=O)NCc3ccc(F)cc3F)ccc2C(=O)N2CCCCCC21 (stereo not given),,"inconclusive: 44.7 µM [inhibitor, partial curve, poor fit]",
COc1ccccc1-c1ccnc(-c2nnc(C)n2Cc2ccccc2)c1,,active: 70.8 µM,

Structure (SMILES),"activity change, negative = cytotoxicity",Potency,outcome
Cc1ccc(-c2noc([C@@H]3Cc4nc[nH]c4CN3C(=O)c3ccccc3)n2)cc1,inactive: 0.227% [at 172 µM],,
COCC(=O)NC1CCN(c2ccc3nnc(C)n3n2)CC1,inactive: -13.1% [at 172 µM],,
CCCN1C(=O)Cc2cc(C(=O)NCc3ccccc3C(F)(F)F)ccc21,inactive: -23.7%,,
COc1ccc(Cn2c3c(c(=O)n2Cc2ccccc2)CCN(C(=O)c2cccc(N(C)C)c2)C3)cc1,inactive: -28.5%,,
COCCCNc1cc(-c2cccs2)nc2c(C)noc12,,"inconclusive: 79.4 µM [inhibitor, partial curve]",
CCOc1ccccc1C(=O)N1CCc2[nH]nc(-c3ccc(F)c(F)c3)c2C1,,"inconclusive: 50.1 µM [inhibitor, partial curve, poor fit]",
COc1ccc(-c2cc(N3CCCN(C(=O)Cc4c[nH]c5ccccc45)CC3)n[nH]2)cc1,,"inconclusive: 44.7 µM [inhibitor, partial curve, poor fit]",
COCCn1c(=O)c(C(=O)N2CCN(C(=O)c3ccc(C(F)(F)F)cc3)CC2)nc2cccnc21,inactive: -0.78%,,
COc1cc(CNc2nc(-c3c(C)noc3C)cc3cc(C)oc23)cc(OC)c1,,"inconclusive: 17.8 µM [inhibitor, full curve, poor fit]",
Cc1ccc(NC(=O)CN2C(=O)NC(c3ccccc3Cl)C3=C2COC3=O)cc1C (stereo not given),,"inconclusive: 14.1 µM [inhibitor, full curve]",
CCOc1ccc(NC(=O)C2(C)CCCCC(=O)N2)cc1 (stereo not given),inactive: -5.26%,,
Cc1ccc(C(=O)N2CCc3nc(C(C)C)nc(-c4ccc(Cl)cc4)c3CC2)cc1,,active: 79.4 µM,
COc1ccccc1CN(C)Cc1cccc(C(F)(F)F)c1,inactive: -3.65% [at 172 µM],,
Cc1ccc(-n2nc(C)c([C@H]3C=C[C@@H](OC(=O)Nc4ccc(C(C)C)cc4)C3)c2C)cc1Cl,,active: 28.2 µM,
O=c1c2cc(-c3cccs3)nn2ccn1CC(O)c1ccccc1 (stereo not given),,"inconclusive: 39.8 µM [inhibitor, full curve, poor fit]",
CC1CN(C(=O)c2csc(-c3ccc(C(F)(F)F)cc3)n2)CCCO1 (stereo not given),,"inconclusive: 44.7 µM [inhibitor, partial curve, poor fit]",
O=C1COc2ccc(OCC3CC3)nc2CN1Cc1ccc(C(F)(F)F)cc1,,active: 79.4 µM,
Cc1cc(C)c(CNC(=O)c2cc(-c3ccccc3F)cc3c2OCCN3C(C)C)c(=O)[nH]1,,"inconclusive: 50.1 µM [inhibitor, partial curve, poor fit]",
COC(=O)c1ccc2nc(CO[C@H]3CN(Cc4ccc5c(c4)OCO5)C[C@H]3F)[nH]c2c1,,"inconclusive: 100 µM [inhibitor, partial curve]",
COc1ccccc1-c1ccc(C(=O)N2CCC(C(=O)NCCc3ccc(F)cc3)CC2)cc1,,"inconclusive: 56.2 µM [inhibitor, partial curve, poor fit]",
Cc1nc(-c2cccc(Cl)c2)n(CC(=O)Nc2cccc(C(C)C)c2)c(=O)c1CCO,,"inconclusive: 31.6 µM [inhibitor, full curve, poor fit]",
CCc1[nH]c2ccc(CNC(=O)C3CC(=O)Nc4ccccc43)cc2c1C (stereo not given),,"inconclusive: 10 µM [inhibitor, full curve, poor fit]",

Structure (SMILES),"activity change, negative = cytotoxicity",Potency,outcome
COc1ccccc1-c1nnc2ccc(C(=O)N3CCN(C(C)=O)CC3)cn12,,,inactive
CC(C)(O)CN1CCC(=O)N(C/C=C/c2ccccc2)CCc2ccccc21,,"inconclusive: 31.6 µM [inhibitor, partial curve]",
Cc1nn(C)c(C)c1CCC(=O)NCCn1c(C)cnc1C1CC1,,,inactive
Cc1noc2c(-c3cccc(CO)c3)cc(-c3ccccc3)nc12,,"inconclusive: 100 µM [inhibitor, partial curve, poor fit]",
COc1ccc(CNC(=O)CC[C@]23CC[C@](C)(O)C[C@H]2C(C)(C)C[C@@H]3NC(=O)c2cccc(F)c2)cc1,,"inconclusive: 79.4 µM [inhibitor, partial curve, poor fit]",
COc1ccc(C(=O)N[C@@H]2CN(C(=O)Nc3ccccc3)CCC[C@H]2O)cc1,,"inconclusive: 126 µM [inhibitor, single point]",
COCCNC(=O)c1cn2cc(-c3cccc(OC)c3)sc2n1,,"inconclusive: 126 µM [inhibitor, single point]",
CN1CCN(C(=O)N2CCCCC2)CC12CCC(=O)N(CC(=O)O)CC2 (stereo not given),inactive: 1.51%,,
CCOCCn1c(=O)[nH]c2cc(C(=O)N3CCC(OC)CC3)ccc21,,"inconclusive: 79.4 µM [inhibitor, single point]",
CNC(=O)C1CCN(c2nccc(Nc3ccccc3F)n2)CC1,,"inconclusive: 126 µM [inhibitor, partial curve, poor fit]",
O=C1NC2(CCN(Cc3ccc(F)cc3)CC2)COc2ccccc21,,active: 63.1 µM,
O=C(NCc1cccs1)[C@@H]1C[C@@H](O)[C@H](O)[C@@H]2NC(=S)N(c3ccc(OC(F)(F)F)cc3)[C@@H]21,,"inconclusive: 50.1 µM [inhibitor, partial curve, poor fit]",
COc1ccc(CC(=O)NC2CCN(c3cc(-c4ccc(Cl)cc4)[nH]n3)C2)cc1 (stereo not given),,active: 28.2 µM,
CC(C)(C)CN1CCOC[C@H]1c1ncc(-c2ccc(C(F)(F)F)cc2)[nH]1,,active: 70.8 µM,
COc1ccc(C(=O)NCC23CCCC=C2NC(=O)CC3)cc1OC (stereo not given),inactive: 4.54%,,
COCCN1CCCCCC(O)c2cc(C(=O)N3CCN(C4CCCCC4)CC3)ccc21 (stereo not given),,"inconclusive: 89.1 µM [inhibitor, single point]",
Cc1noc(C2CC3(CCN(C(=O)c4nn(C)c5ccccc45)CC3)CN2C)n1 (stereo not given),inactive: -6.94%,,
Cc1ccccc1[S+](=O)([O-])N1CCC2(CC1)OCCN(Cc1ccccc1)C2=O,,"inconclusive: 79.4 µM [inhibitor, partial curve]",
COc1ccc2nc([C@H]3CCN(Cc4ccc5c(c4)OCO5)C3)[nH]c2c1,,"inconclusive: 100 µM [inhibitor, partial curve]",
Cn1cccc1C(=O)N1CCC(Oc2ccccc2-c2nc(C3CCOCC3)no2)C1 (stereo not given),,"inconclusive: 35.5 µM [inhibitor, partial curve, poor fit]",
CCC(CC)C(=O)N1CCC(=O)N(CCOC)C[C@H]2COc3ccccc3[C@H]21,,"inconclusive: 89.1 µM [inhibitor, single point]",
